About 4,300 (8.3%) of roughly 52,000 compounds were called active. Rule as the data show it: active = survival mostly below about 52% (no sharp cut-off); inactive = mostly above about 56%. Some of the results follow.

The assay deals with DeltatarO mutant. Description: S. aureus survival, RN4220 and DeltatarO strains – OD600, teichoic acid synthesis inhibitors, primary screen (AID 463173). The conditions noted are these: S. aureus RN4220 wild type/DeltatarO growth, OD600, 18 h, hits give low values, screened at 18.75 µg/mL (by protocol).
On to `CC1CCc2c(sc(NC(=O)c3cc(-c4ccc(Br)cc4)on3)c2C(N)=O)C1` (stereo not drawn), for which the survival is inactive: 173%. Take `Cc1c(CNCCCc2ccccc2)c(C(=O)O)c(C)n1Cc1cccc(Cl)c1`: the survival is inactive: 63%.

With `COc1ccc(NC(=O)C2CCN(S(=O)(=O)c3c(C)noc3/C=C/c3ccc(C)cc3)CC2)cc1Cl`, the survival is inactive: 82%. For `CCNc1nc(NC(C)(C)C)nc(N2CCCCC2)n1`, the survival was inactive: 98%. The same measure for `Cc1ccc(-n2cnc3cc(C(=O)NC4CCCCCC4)ccc32)cc1Cl`: inactive: 131%; for `COC(=O)c1c(C)sc(-c2c(-c3ccc4c(c3)OCCO4)[nH]c3c2c(=O)[nH]c(=O)n3C)c1O`: active: 37%; for `O=C1OCc2cc(-n3[nH]nnc3=S)ccc21`: inactive: 86%. The same measure for `Cc1ccc(C)c(N(C)S(=O)(=O)c2ccc3[nH]cc(C(=O)NC4CCCC4)c(=O)c3c2)c1`: inactive: 98%; for `CCOc1ccc(S(=O)(=O)NCC(c2cccs2)S(=O)(=O)c2ccc(C)cc2)cc1` (stereo not drawn): inactive: 107%; for `CCN1CCN(C(=O)c2c(C)nn(-c3ccc(F)cc3)c2-n2cccc2)CC1`: inactive: 82%. For the compound `CC(C)(C)NC(=O)CCSc1nc(-c2ccc3c(c2)OCO3)cc(C(F)(F)F)n1`, the survival is active: 15%. The same measure for `Cc1ccc(NS(=O)(=O)c2ccc3[nH]c4c(c3c2)CCCCC4)cc1`: inactive: 83%.

Turning to `COc1ccc(S(=O)(=O)c2cn(C)c3cc(N4CCOCC4)c(F)cc3c2=O)cc1`, the survival is inactive: 96%. The same measure for `CCc1ccc(OCC(=O)Nc2ccc3oc(-c4ccc(OC)cc4)nc3c2)cc1`: inactive: 62%; for `CC(=O)N1CCc2cc(S(=O)(=O)N3CCN(c4ccc(C)cc4)C(C)C3)ccc21` (stereo not drawn): inactive: 87%; for `O=C(COc1ccccc1)Nc1c(Cl)ccc2nsnc12`: inactive: 74%. The same measure for `O=C(NCc1ccc(F)cc1)C(=O)NCC(c1cccs1)S(=O)(=O)c1cccs1` (stereo not drawn): inactive: 94%. The same measure for `Cc1c(C(=O)OCCOc2ccccc2)[nH]c2c1C(=O)CC(c1ccccc1Cl)C2` (stereo not drawn): inactive: 80%; for `CCOC(=O)c1cccc(NC(=O)c2nn(-c3ccc(OC)cc3)c(=O)c3c2c2ccccc2n3C)c1`: inactive: 63%. Take `CN(Cc1ccccc1)c1ccc(-c2nc(-c3cccnc3)no2)cc1[N+](=O)[O-]`: the survival is inactive: 62%. The same measure for `CCN(Cc1ccccc1)S(=O)(=O)c1ccc2[nH]c3c(c2c1)CCCCC3`: inactive: 83%; for `CCC(C(=O)NCCc1cc(OC)ccc1OC)n1nc(C)c2sc3ccccc3c2c1=O` (stereo not drawn): inactive: 69%; for `CN(C)c1ccc(CNC(=O)c2cccn2-c2nnc(N3CCCCC3)s2)cc1`: inactive: 55%. The same measure for `Cc1ccc(C)c(NC(=O)CSc2nc(-c3ccccc3Cl)nc3c2Cc2c(CO)cnc(C)c2O3)c1`: inactive: 118%. Consider `CCOC(=O)c1cnc2nc(NCc3ccc(OCC)cc3)[nH]n2c1=O`, for which the survival was inactive: 90%. The same measure for `CCCCOc1ccc(C(=O)NCCc2csc(-c3ccc(OC)cc3)n2)cc1`: inactive: 108%; for `Cc1ccc(N2CCN(C(=O)c3cnc(N4CCCCC4)c4ccccc34)CC2)c(C)c1`: inactive: 84%; for `COc1ccc(CNC(=O)CCCN2C(=O)COc3ccc(C)cc32)cc1`: inactive: 109%. In the case of `CCC(=O)Nc1ccccc1-c1nc2ccccc2n(CC(=O)c2ccc(C)cc2)c1=O`, the survival is inactive: 50%. In the case of `CSc1ncc(Cl)c(C(=O)Nc2c(C(=O)Nc3cccc(Cl)c3)oc3ccccc23)n1`, the survival was inactive: 71%. The same measure for `COc1cccc(Cn2nnc3c(=O)[nH]c(C4CCN(C(=O)c5ccccc5Cl)CC4)nc32)c1`: active: 14%. The same measure for `CC1=C(C(N)=O)C(c2ccccc2Br)n2ncnc2N1` (stereo not drawn): inactive: 85%.

As to `O=C(NCc1ccccc1Br)c1cnc2sc(N3CCCCCC3)nn2c1=O`, the survival was inactive: 94%. The same measure for `O=C(Nc1ccc(F)c(Cl)c1)N1CC=C(c2c[nH]c3ccccc23)CC1`: inactive: 77%; for `CC(C)CCNC(=O)c1cc2cc(S(=O)(=O)N3CCCCC3)ccc2n1C`: inactive: 68%. The same measure for `Cn1c(=O)oc2cc(S(=O)(=O)N3CCCC(C(=O)NCc4ccc(F)cc4)C3)ccc21` (stereo not drawn): inactive: 131%; for `CCC(=O)N1c2ccccc2CC1C(=O)NCCc1ccccc1` (stereo not drawn): inactive: 69%; for `O=C(NCCc1ccccc1Cl)c1sc2ncccc2c1-n1cccc1`: inactive: 144%.

`O=C(O)CSC1=NC2CCCCC2N1` (stereo not drawn): the survival was inactive: 97%.

Take `O=C(NC1CC(=O)N(c2ccccc2)C1)c1ccc(S(=O)(=O)N2CCCCC2)cc1` (stereo not drawn): the survival was active: 17%. For the compound `CCN(CC)c1nc2ccccc2nc1C(=O)Nc1cc(OC)c(OC)c(OC)c1`, the survival was inactive: 104%. The same measure for `Cc1nn(C(=O)c2ccc(Cl)cc2)c(C)c1S(=O)(=O)N1CCCCCC1`: inactive: 80%; for `Cc1nn2c(C)c(C(=O)NCc3ccco3)cnc2c1-c1ccccc1`: inactive: 126%; for `Cc1ccc(N2CCn3c2nc2c3c(=O)n(CCCc3ccccc3)c(=O)n2C)cc1C`: inactive: 64%. The same measure for `CCn1c(SCC(=O)NC2CCCC2)nnc1-c1ccccc1`: inactive: 75%; for `COc1cc(OC)c(NC(=O)CCCn2nc(C)c3c(C)n(-c4ccccc4)nc3c2=O)cc1Cl`: active: 32%. The same measure for `CCOC(=O)c1ccc(NC(=O)CSc2c3c(nc4cc(Cl)ccc24)CCCC3)cc1`: inactive: 68%; for `COc1ccc(-n2nc(C(=O)N3CCCC(C)C3)c3c4ccccc4n(C)c3c2=O)cc1Cl` (stereo not drawn): inactive: 73%; for `CSc1ccc(CCNS(=O)(=O)c2ccc3c(c2)C(C)(C)C(=O)N3C)cc1`: inactive: 84%. For `O=c1c2ccccc2n2c(-c3ccc(Cl)cc3)nnc2n1CCc1ccccc1`, the survival is inactive: 76%. `COc1cc(OC)cc(C(=O)N2CCN(C(=O)COc3ccccc3)CC2)c1`: the survival was active: 54%. The same measure for `COCCn1c(SCC(=O)N2CCCCC2C)nc2sc(C)c(C)c2c1=O` (stereo not drawn): inactive: 51%; for `CC(C)c1ccc(NC(=O)C(C)N(c2ccccc2)S(C)(=O)=O)cc1` (stereo not drawn): inactive: 65%. The same measure for `CC(C)C(NS(=O)(=O)c1ccc2c(c1)oc(=O)n2C)C(=O)NCCc1ccccc1` (stereo not drawn): inactive: 89%.

As to `COc1cc(OC)c(NC(=O)N2CC3CCCN3c3ccccc32)cc1Cl` (stereo not drawn), the survival was inactive: 97%. The same measure for `COc1ccc(-c2nc(CSc3nnc(C)n4c3cc3occc34)c(C)o2)cc1OC`: inactive: 73%; for `COCCCNc1nc(NCc2cccc(Cl)c2)c2cnn(C)c2n1`: inactive: 85%. The same measure for `CCc1ccc(-n2nc(C)c3c(C)cc(=O)n(CC(=O)Nc4ccc(C(C)=O)cc4)c32)cc1`: inactive: 78%; for `COc1ccc(OCC(=O)NCC(c2ccc(OC)cc2)N2CCCCC2)cc1` (stereo not drawn): inactive: 79%. The same measure for `COc1ccc(C2C(C(=O)Nc3cccnc3)=C(C)Nc3nc(-c4ccccc4)nn32)cc1OC` (stereo not drawn): inactive: 88%. With `Cc1cccc(OCC(=O)N(Cc2ccc(C(C)(C)C)cc2)Cc2ccco2)c1`, the survival was inactive: 67%.

Regarding `COc1ccccc1NC(=O)C1=C(C)Nc2nc(SCc3ccccc3Cl)nn2C1c1ccccn1` (stereo not drawn), the survival was inactive: 171%.

With `Cn1c(NN)nc2sc3c(c2c1=O)CCCC3`, the survival was inactive: 89%. As for `Cc1c(C(=O)Nc2ccc(C(C)C)cc2)sc2nc3n(c(=O)c12)CCC3`, the survival is inactive: 78%. The same measure for `CCC(CC)c1nn2c(=O)cc(COc3ccc(NC(=O)c4ccc(C)cc4)cc3)nc2s1`: inactive: 96%; for `Cc1cn2c(=O)cc(COC(=O)c3cccc(NC(=O)c4ccccc4Cl)c3)nc2s1`: inactive: 102%.

Consider `CCc1ccc(CNC(=O)CN2C(=O)CSc3c2c(C)nn3-c2ccccc2)cc1`, for which the survival was inactive: 99%.

In the case of `COc1ccc(NC(=O)CC2C(=O)N(c3cccc(C)c3)C(=O)N2Cc2cccnc2)cc1` (stereo not drawn), the survival was inactive: 75%.

Regarding `CC1CCC(NC(=O)CN2CCC(n3nnc4ccccc43)CC2)CC1` (stereo not drawn), the survival is inactive: 76%. The same measure for `O=S(=O)(NN=C1CCCCC1)c1ccccc1`: inactive: 93%.

In the case of `O=C(Cn1ncc2c3ccccc3n(Cc3ccc(F)cc3)c2c1=O)NCCC1=CCCCC1`, the survival was inactive: 85%.

For the compound `Cc1ccc(C)c(CN2C(=O)c3ccccc3S(=O)(=O)c3ccc(C(=O)NCCCN4CCCC(C)C4)cc32)c1` (stereo not drawn), the survival was inactive: 140%. The same measure for `COc1ccc(CNC(=O)C2CCCN(S(=O)(=O)c3cccc4nsnc34)C2)cc1` (stereo not drawn): inactive: 85%. Turning to `COC(=O)c1c(NC(=O)c2nc(SCc3ccc(F)cc3)ncc2Cl)sc2c1CCCC2`, the survival was inactive: 47%.

Consider `Cn1nnnc1SCCCNCc1cc(Cl)ccc1OCc1ccc(F)cc1`, for which the survival was inactive: 69%. For the compound `CCOc1ccccc1-c1noc(CSc2nnc(-c3ccccc3)n2-c2ccc(F)cc2)n1`, the survival is inactive: 96%.

Turning to `Nc1c(C(=O)Nc2ccc(OC(F)(F)F)cc2)sc2nc(-c3ccncc3)ccc12`, the survival was inactive: 71%. Consider `Cc1nn2c(=O)cc(COC(=O)Cc3ccccc3)nc2s1`, for which the survival is inactive: 78%.

For the compound `O=c1c(-c2cc(-c3ccccc3)nc3c2COc2ccc(Cl)cc2-3)coc2ccc(F)cc12`, the survival was inactive: 90%.

For the compound `O=C(Nc1nc2n(n1)C(c1ccc(F)cc1)C=C(c1ccccc1)N2)c1ccco1` (stereo not drawn), the survival was active: 41%. The same measure for `Cc1c(Cl)cccc1NC(=O)c1ccc2c(c1)CCN2S(=O)(=O)c1ccccc1`: active: 39%; for `Cc1ccc(CN2CCCN(CC(=O)Nc3ccc(C)cc3C)S2(=O)=O)cc1`: inactive: 89%; for `CSc1ccc(CCNC(=O)Cn2ccc3cc(S(=O)(=O)N4CCCCCC4)ccc32)cc1`: inactive: 124%. For `CN(C)CCNc1ncnc2c1cnn2-c1cccc(Cl)c1`, the survival was inactive: 85%. The same measure for `Cc1ccc(-c2noc(C3CCCN(S(=O)(=O)c4ccc5c(c4)OCCO5)C3)n2)cc1` (stereo not drawn): inactive: 82%; for `CN(C)c1ccc(C(CNC(=O)c2ccccc2C(F)(F)F)N2CCOCC2)cc1` (stereo not drawn): inactive: 70%. The same measure for `O=C(Nc1cccc(Cl)c1Cl)c1cc(S(=O)(=O)NCc2ccc3c(c2)OCO3)ccc1F`: inactive: 88%. The same measure for `Cc1ccc(-n2c(=O)cc(N3CCN(c4ccccc4Cl)CC3)[nH]c2=O)cc1`: active: 25%.

The values above are taken from PubChem BioAssay AID463173 (ICCB-Longwood Screening Facility, Harvard Medical School, 2010).
